Entries after “also recorded” stand apart in the source; their conditions may differ. Read-outs that look alike come from different tables or passages of the source. Part of at least one peptide drawing is inferred or uncertain, most often the ends. Some entries repeat one wording, which the source may state once for all of them. Some results were stated once for a whole list of compounds, not compound by compound. Starred links: 1 amine or outer side, 2 acyl side, 3 side chain; linkers in the order of their positions; H or OH if unused. Positions of bridges follow the written chain, without caps; N, C: chain ends. Non-standard residues stand in square brackets, D forms with d. Residues, ends and D or L forms follow the SMILES beside them. *: point of attachment. TATA = O=C(CC[*:1])N1CN(C(=O)CC[*:2])CN(C(=O)CC[*:3])C1; Biotin = O=C1N[C@H]2[C@H](CS[C@H]2CCCCC(=O)*)N1; Sar = CNCC(=O)O
Biological target: T1, OX40 (Homo sapiens, UniProt P43489)
T1 construct: host or cells: OX40 Jurkat cells (NF-kB luciferase reporter)
T1 sequence (P43489 29-277): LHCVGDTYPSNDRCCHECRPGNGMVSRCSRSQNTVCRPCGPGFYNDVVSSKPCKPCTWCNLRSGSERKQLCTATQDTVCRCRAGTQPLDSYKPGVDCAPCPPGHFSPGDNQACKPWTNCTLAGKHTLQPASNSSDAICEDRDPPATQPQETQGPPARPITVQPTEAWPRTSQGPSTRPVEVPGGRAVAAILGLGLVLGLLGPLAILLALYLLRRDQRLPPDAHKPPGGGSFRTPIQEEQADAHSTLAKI
Experiment: Promega OX40 cell-activity assay (NF-κB luciferase read-out in OX40 Jurkat cells)
Format: cell-based
Conditions: for agonism of OX40: BCY12019 synthetic tetramer

[1] = biotinylated peptides bound to streptavidin in a tetrameric format
[2] = biotinylated peptides bound to streptavidin in a tetrameric format, BCY12019 synthetic tetramer (single value), read-out: EC50 (nM), 2 independent experiments
[3] = biotinylated peptides bound to streptavidin in a tetrameric format, read-out: EC50 (nM), 2 independent experiments

Row | Structure (SMILES) | agonism of OX40 [1] | EC50 [2] [nM] | EC50 [3] [nM] | EC50 (bound to streptavidin in a tetrameric format, read-out: EC50 values in the OX40 cell-based assay (bound stated in text)) [nM]
1 | C[C@H](NC(=O)[C@@H]1CSCCC(=O)N2CN3CN(C2)C(=O)CCSC[C@H](NC(=O)[C@H](CC(N)=O)NC(=O)[C@H](CCCCN)NC(=O)[C@H](C)NC(=O)[C@@H](NC(=O)[C@H](C)NC(=O)CN(C)C(=O)CN(C)C(=O)CN(C)C(=O)CN(C)C(=O)CN(C)C(=O)CNC(=O)CCCC[C@@H]2SC[C@@H]4NC(=O)N[C@@H]42)CSCCC3=O)C(=O)N[C@@H](CC(=O)O)C(=O)N2CCC[C@H]2C(=O)N[C@@H](Cc2ccccc2)C(=O)N[C@@H](Cc2c[nH]c3ccccc23)C(=O)N[C@@H](Cc2ccc(O)cc2)C(=O)N[C@@H](CCC(N)=O)C(=O)N[C@@H](Cc2ccccc2)C(=O)N[C@@H](Cc2ccc(O)cc2)C(=O)N1)C(N)=O [BCY10479, [Biot]-G-[Sar5]-A-(SEQ ID NO: 3)-A] (Biotin-G[Sar][Sar][Sar][Sar][Sar]ACAKNCDPFWYQFYCA-NH2; linker 8-12-21 via TATA; C-terminus assumed) | good agonism of OX40 | 226 | 1300 | –
2 | CC(C)C[C@@H]1NC(=O)[C@@H](NC(=O)[C@H](C)NC(=O)CN(C)C(=O)CN(C)C(=O)CN(C)C(=O)CN(C)C(=O)CN(C)C(=O)CNC(=O)CCCC[C@@H]2SC[C@@H]3NC(=O)N[C@@H]32)CSCCC(=O)N2CN3CN(C2)C(=O)CCSC[C@H](NC(=O)[C@@H]2CCCN2C(=O)[C@H](CO)NC(=O)[C@H](Cc2ccc(O)cc2)NC1=O)C(=O)N[C@@H](Cc1c[nH]c2ccccc12)C(=O)N[C@@H](Cc1c[nH]cn1)C(=O)N1CCC[C@H]1C(=O)N[C@@H](CC(C)C)C(=O)N[C@@H](CC(N)=O)C(=O)N[C@@H](CC(=O)O)C(=O)N[C@H](C(=O)N[C@@H](C)C(N)=O)CSCCC3=O [BCY10482, [Biot]-G-[Sar5]-A-(SEQ ID NO: 6)-A] (Biotin-G[Sar][Sar][Sar][Sar][Sar]ACLYSPCWHPLNDCA-NH2; linker 8-13-20 via TATA; C-terminus assumed) | good agonism of OX40 | 160 | 237 | –
3 | CC(C)C[C@@H]1NC(=O)[C@@H](NC(=O)[C@H](C)N)CSCCC(=O)N2CN3CN(C2)C(=O)CCSC[C@H](NC(=O)[C@@H]2CCCN2C(=O)[C@H](CO)NC(=O)[C@H](Cc2ccc(O)cc2)NC1=O)C(=O)N[C@@H](Cc1c[nH]c2ccccc12)C(=O)N[C@@H](Cc1c[nH]cn1)C(=O)N1CCC[C@H]1C(=O)N[C@@H](CC(C)C)C(=O)N[C@@H](CC(N)=O)C(=O)N[C@@H](CC(=O)O)C(=O)N[C@H](C(=O)N[C@@H](C)C(=O)N(C)CC(=O)N(C)CC(=O)N(C)CC(=O)N(C)CC(=O)N(C)CC(=O)N(C)CC(=O)N[C@@H](CCCCNC(=O)CCCC[C@@H]1SC[C@@H]2NC(=O)N[C@@H]21)C(N)=O)CSCCC3=O [BCY10549, A-(SEQ ID NO: 6)-A-[Sar6]-[KBiot]] (H-ACLYSPCWHPLNDCA[Sar][Sar][Sar][Sar][Sar][Sar]K(Biotin)-NH2; linker 2-7-14 via TATA; N-terminus and C-terminus assumed) | good agonism of OX40; also recorded: particularly high levels of agonism; also recorded: high levels of OX40 agonism; also recorded: biologically active complex | 17 | 19 | –
4 | C[C@H](N)C(=O)N[C@H]1CSCCC(=O)N2CN3CN(C2)C(=O)CCSC[C@H](NC(=O)[C@H](CC(=O)O)NC(=O)[C@H](Cc2ccc(O)cc2)NC(=O)[C@H](CCC(=O)O)NC(=O)[C@H](Cc2ccc(O)cc2)NC(=O)[C@H](Cc2c[nH]c4ccccc24)NC1=O)C(=O)N[C@@H](CC(N)=O)C(=O)N[C@@H](CC(N)=O)C(=O)N[C@@H](Cc1c[nH]c2ccccc12)C(=O)N[C@@H](CCC(=O)O)C(=O)N[C@@H](CCCNC(=N)N)C(=O)N[C@H](C(=O)N[C@@H](C)C(=O)N(C)CC(=O)N(C)CC(=O)N(C)CC(=O)N(C)CC(=O)N(C)CC(=O)N(C)CC(=O)N[C@@H](CCCCNC(=O)CCCC[C@@H]1SC[C@@H]2NC(=O)N[C@@H]21)C(N)=O)CSCCC3=O [BCY10550, A-(SEQ ID NO: 8)-A-[Sar6]-[KBiot]] (H-ACWYEYDCNNWERCA[Sar][Sar][Sar][Sar][Sar][Sar]K(Biotin)-NH2; linker 2-8-14 via TATA; N-terminus and C-terminus assumed) | good agonism of OX40 | 389 | 74 | –
5 | CC[C@H](C)[C@@H]1NC(=O)[C@@H](NC(=O)[C@H](C)N)CSCCC(=O)N2CN3CN(C2)C(=O)CCSC[C@H](NC(=O)[C@H](Cc2c[nH]c4ccccc24)NC(=O)[C@H](CC(C)C)NC1=O)C(=O)N[C@@H](CC(C)C)C(=O)N1CCC[C@H]1C(=O)N[C@@H](CCC(=O)O)C(=O)N1CCC[C@H]1C(=O)N[C@@H](Cc1c[nH]cn1)C(=O)N[C@@H](CC(=O)O)C(=O)N[C@@H](CCC(=O)O)C(=O)N[C@H](C(=O)N[C@@H](C)C(=O)N(C)CC(=O)N(C)CC(=O)N(C)CC(=O)N(C)CC(=O)N(C)CC(=O)N(C)CC(=O)N[C@@H](CCCCNC(=O)CCCC[C@@H]1SC[C@@H]2NC(=O)N[C@@H]21)C(N)=O)CSCCC3=O [BCY10551, A-(SEQ ID NO: 1)-A-[Sar6]-[KBiot]] (H-ACILWCLPEPHDECA[Sar][Sar][Sar][Sar][Sar][Sar]K(Biotin)-NH2; linker 2-6-14 via TATA; N-terminus and C-terminus assumed) | good agonism of OX40; also recorded: particularly high levels of agonism | 59 | 19 | < 100
6 | C[C@H](N)C(=O)N[C@H]1CSCCC(=O)N2CN3CN(C2)C(=O)CCSC[C@H](NC(=O)[C@H](CC(N)=O)NC(=O)[C@H](CCCCN)NC(=O)[C@H](C)NC1=O)C(=O)N[C@@H](CC(=O)O)C(=O)N1CCC[C@H]1C(=O)N[C@@H](Cc1ccccc1)C(=O)N[C@@H](Cc1c[nH]c2ccccc12)C(=O)N[C@@H](Cc1ccc(O)cc1)C(=O)N[C@@H](CCC(N)=O)C(=O)N[C@@H](Cc1ccccc1)C(=O)N[C@@H](Cc1ccc(O)cc1)C(=O)N[C@H](C(=O)N[C@@H](C)C(=O)N(C)CC(=O)N(C)CC(=O)N(C)CC(=O)N(C)CC(=O)N(C)CC(=O)N(C)CC(=O)N[C@@H](CCCCNC(=O)CCCC[C@@H]1SC[C@@H]2NC(=O)N[C@@H]21)C(N)=O)CSCCC3=O [BCY10552, A-(SEQ ID NO: 3)-A-[Sar6]-[KBiot]] (H-ACAKNCDPFWYQFYCA[Sar][Sar][Sar][Sar][Sar][Sar]K(Biotin)-NH2; linker 2-6-15 via TATA; N-terminus and C-terminus assumed) | good agonism of OX40 | 350 | 21 | –
7 | CC[C@H](C)[C@@H]1NC(=O)[C@H](C(C)C)NC(=O)[C@@H](NC(=O)[C@H](C)N)CSCCC(=O)N2CN3CN(C2)C(=O)CCSC[C@H](NC(=O)[C@@H]2CCCN2C(=O)[C@H](CO)NC(=O)[C@H](Cc2ccc(O)cc2)NC(=O)[C@H](CCCNC(=N)N)NC1=O)C(=O)N[C@@H](CO)C(=O)N[C@@H](Cc1c[nH]cn1)C(=O)N[C@@H](Cc1ccc(O)cc1)C(=O)N[C@@H](CC(C)C)C(=O)N[C@@H](CC(N)=O)C(=O)N[C@H](C(=O)N[C@@H](C)C(=O)N(C)CC(=O)N(C)CC(=O)N(C)CC(=O)N(C)CC(=O)N(C)CC(=O)N(C)CC(=O)N[C@@H](CCCCNC(=O)CCCC[C@@H]1SC[C@@H]2NC(=O)N[C@@H]21)C(N)=O)CSCCC3=O [BCY10794, A-(SEQ ID NO: 9)-A-[Sar6]-[KBiot]] (H-ACVIRYSPCSHYLNCA[Sar][Sar][Sar][Sar][Sar][Sar]K(Biotin)-NH2; linker 2-9-15 via TATA; N-terminus and C-terminus assumed) | good agonism of OX40 | 186 | 102 | –

— patent publication US11613560B2, “Bicyclic peptide ligands specific for OX40” (BicycleTx Limited, priority 2019, dated 2023)
